The supplement of paper PMC3334620
Over roughly 33,000 sequences, “E-score (-0.5 to 0.5)” has its median near -0.035; the highest 2% begin near 0.35. Some of the results follow.

target: T1, Pdr3 (UniProt P33200); assay: PBM E-score (8-mer binding enrichment) (E-score (-0.5 to 0.5)); higher = stronger / more preferred TF binding; most listed sequences are background and not binding sites; conditions: protein concentration: 200 nM; construct: GST-full length
T1 sequence: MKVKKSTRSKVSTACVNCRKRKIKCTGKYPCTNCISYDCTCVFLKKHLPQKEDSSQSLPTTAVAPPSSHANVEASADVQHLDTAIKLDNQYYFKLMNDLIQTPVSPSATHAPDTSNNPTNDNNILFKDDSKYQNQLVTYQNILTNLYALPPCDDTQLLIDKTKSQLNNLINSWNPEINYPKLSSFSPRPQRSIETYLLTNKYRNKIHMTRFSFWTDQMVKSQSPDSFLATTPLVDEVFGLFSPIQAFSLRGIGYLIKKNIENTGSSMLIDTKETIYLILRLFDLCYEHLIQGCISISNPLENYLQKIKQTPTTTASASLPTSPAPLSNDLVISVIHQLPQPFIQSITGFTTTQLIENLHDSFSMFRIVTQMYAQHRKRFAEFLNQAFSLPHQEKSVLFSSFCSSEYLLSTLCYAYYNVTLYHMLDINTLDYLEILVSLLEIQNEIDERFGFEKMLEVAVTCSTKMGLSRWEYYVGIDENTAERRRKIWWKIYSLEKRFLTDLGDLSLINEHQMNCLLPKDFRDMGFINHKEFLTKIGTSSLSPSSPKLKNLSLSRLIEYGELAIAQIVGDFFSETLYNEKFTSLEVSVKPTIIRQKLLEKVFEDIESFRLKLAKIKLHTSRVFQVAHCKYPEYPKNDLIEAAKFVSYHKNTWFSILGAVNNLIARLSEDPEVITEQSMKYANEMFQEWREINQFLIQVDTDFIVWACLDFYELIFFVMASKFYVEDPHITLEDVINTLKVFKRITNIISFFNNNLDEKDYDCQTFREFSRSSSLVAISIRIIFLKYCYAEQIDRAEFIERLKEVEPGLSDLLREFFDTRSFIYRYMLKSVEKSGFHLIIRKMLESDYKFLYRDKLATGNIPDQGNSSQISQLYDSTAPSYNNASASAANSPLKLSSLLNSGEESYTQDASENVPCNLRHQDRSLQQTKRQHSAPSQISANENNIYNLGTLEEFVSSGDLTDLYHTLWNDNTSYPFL
Summary of the method: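 Universal all-10-mer Agilent arrays, fresh or stripped once, were converted to double-stranded form by primer extension. GST-tagged yeast transcription factors from PURExpress in vitro transcription/translation, full-length or DNA-binding domain only, were applied at about 100-200 nM and detected with fluorescent anti-GST. After masliner normalisation, the Universal PBM Analysis Suite scored each ungapped eight-base word together with its reverse complement by E-score.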

Sequence	PBM E-score
CAGATACG	0.0207
AAACGCCT	-0.0655
AGATATGA	0.0428
CCACGTCA	-0.131
GATCGTGA	-0.0838
AGATGTTA	-0.202
TGAATTCA	-0.0488
AAAAAGTT	-0.0377
GGACATCA	0.191
CGAGTGAA	0.0402
GAAATGTA	0.16
CGTCTGCA	-0.132
CGCTCAGC	0.0744
ATCAGCGA	-0.0101
CTTATGGA	-0.119
GGTCATAC	0.0319
GCCCCTCA	-0.0822
AACGTGAA	-0.168
CGACACGC	-0.0394
ATCGATCG	0.022
ATGATGGA	-0.00822
AATAGCTC	-0.0712
ACCGGCTG	0.108
CAAGCTTC	-0.149

Sequence	PBM E-score
ACGGAACA	0.477
CCAATAAC	0.0756
CTTACTGC	-0.0466
ACCGCGAA	0.251
GCGACGTA	-0.112
CATACCCC	0.0622
GTTATCAA	-0.196
AGACTTCG	-0.218
ACGCCTAA	-0.145
ACCCCCAA	-0.0272
CGTGAGTC	-0.0549
GCTACGGA	0.218
CAACACGC	-0.127
CGCCCATC	0.166
CGATCTAG	-0.29
ACTCCGAT	0.203
ATGGGCTC	-0.152
AGACCTTG	-0.253
AAACCTCC	-0.0529
AGTTCTGC	0.101
ACTAATAA	0.0661
CGCGTACG	0.0867
AAGCACAC	-0.122
ATCCCGGC	0.419

Sequence	PBM E-score
CTATCGGA	0.318
CAGGCTGG	-0.208
CTAATCCC	0.124
AAACAGCA	0.071
AACAAAGA	-0.0935
CTGGAGTA	-0.206
CTGTGCGA	-0.173
AAAGCGCG	-0.0452
CTAGACCC	-0.129
TGTTTCAA	-0.153
ATTTCCGA	0.338
GCAATATA	-0.0113
AAGTCTGC	-0.233
GAAGTGTA	-0.201
CCTCCGTC	0.15
AATACTAC	-0.103
AGTAGACG	-0.117
ACGCTATC	-0.0579
CGTGTAAG	-0.16
TATGACCA	0.0196
GATTCCAA	-0.0548
GCGTGCCA	-0.0428
ATACTATC	-0.0366
CCCAGGAC	-0.201

Sequence	PBM E-score
CCAGCAGG	-0.23
GTGCGGTA	0.0907
CTTACTCA	-0.0528
AGCTCAAT	0.00244
AGTAGAGC	-0.148
TGTCCGAA	0.305
AGGTTGAG	-0.213
ATAATGAC	-0.123
CTGCGCCA	0.0227
AACTTCGC	0.0133
ACAGGAGC	-0.0735
AACCTCTA	-0.0113
CTGTTTTC	-0.0973
GTAAGGAC	-0.105
GTAACGGA	0.397
AAGAGCTT	0.0876
GTTTAAAC	-0.029
ACAGGACG	-0.179
AACTGGAG	-0.0991
AGGTCTGC	-0.276
ATAGAAAC	-0.00528
AACGTATC	-0.138
